# The whole screen tested about 52,000 compounds, of which about 4,300 (8.3%) were called active. Rule as the data show it: active = survival mostly below about 52% (no sharp cut-off); inactive = mostly above about 56%. This is one part of the list.
# Test system: DeltatarO mutant
# Assay: S. aureus survival, RN4220 and DeltatarO strains – OD600, teichoic acid synthesis inhibitors, primary screen (AID 463173)
# Conditions: S. aureus RN4220 wild type/DeltatarO growth, OD600, 18 h, stronger effect = lower value, screened at 18.75 µg/mL (by protocol)
row,SMILES,survival
1,Cc1nc2sc(C(N)=O)c(N)c2c(-c2ccc(Br)cc2)c1C(=O)Nc1ccc(Cl)cc1,active: 10%
2,Cc1cccc(NC(=O)c2ccc(-c3nc(CSc4ccccc4)c(C)o3)cc2)c1C,inactive: 89%
3,CSc1ccc(CNC(=O)CCn2c(=O)c3cccn3c3ccc(F)cc32)cc1,inactive: 59%
4,Cc1ccccc1C(=O)Nc1ccc2c(c1)CCCN2C(=O)c1cccs1,inactive: 83%
5,Cc1ccc(-n2ncc3c(=O)n(CC(N)=O)cnc32)cc1,inactive: 98%
6,CCOc1ccc(C(=O)c2cnc3ccc(Cl)cc3c2S(=O)(=O)c2ccc(C)cc2)cc1,inactive: 80%
7,CCN(CC)c1ccc(/C=C(/C#N)C(=O)NC(C)C)o1,inactive: 63%
8,Cc1ccc(-n2nc(CO)c(C(=O)NCCCc3ccccc3)n2)cc1,inactive: 87%
9,O=C(NCCCO)Nc1c[nH]c2ccccc2c1=O,inactive: 96%
10,NC(=O)Cn1c(=O)n(CCCCCC(=O)NCc2ccccc2)c(=O)c2sccc21,inactive: 53%
11,Cc1ccc(-n2nc(C(=O)Nc3ccc(C)c(F)c3)c3c4ccccc4n(C)c3c2=O)cc1,inactive: 92%
12,CC(=O)Nc1nonc1-c1nnc(SCC(=O)Nc2ccc(C)c(Cl)c2)n1-c1ccccc1,inactive: 49%
13,COc1ccc(-n2c(=O)c3ccccc3n(Cc3ccccc3C)c2=O)c(OC)c1,inactive: 65%
14,CC(=O)c1ccc(NC(=O)c2ccc(-c3nc(COc4ccc(C)cc4)c(C)o3)cc2)cc1,inactive: 84%
15,Cc1nn(-c2ccc3nnc(C)n3n2)c(C)c1CCC(=O)Nc1ccc(OC(F)(F)F)cc1,inactive: 79%
16,COc1ccc(-c2cn3nc(N4CCCC(C(=O)NCc5ccccc5OC)C4)sc3n2)cc1 (stereo not drawn),inactive: 77%
17,Cc1occc1C(=O)NCc1ccccc1,inactive: 97%
18,CCOC(=O)c1cnc2c(ccc3ccccc32)c1Nc1ccc(Cl)cc1,active: 23%
19,Cc1ccc(NC(=O)CS(=O)CC(=O)Nc2ccc(N3CCOCC3)cc2)cc1Cl (stereo not drawn),inactive: 93%
20,CC(=O)Nc1ccc(NS(=O)(=O)c2c(C)nc3sccn3c2=O)cc1,inactive: 61%
21,CCOc1ccc(CNC(=O)C2CCCN(S(=O)(=O)N(C)c3ccc(F)cc3)C2)cc1OC (stereo not drawn),inactive: 102%
22,COc1cccc(Cn2c(NCc3ccc(C)cc3)nc3c2c(=O)n(C)c(=O)n3C)c1,inactive: 79%

row,SMILES,survival
1,O=C(Nc1ccc(Cl)cc1)Nc1ccc(N2CCOCC2)cc1,inactive: 75%
2,Cc1ccc(NC(=O)Cn2c(=O)n(Cc3nc(C)no3)c(=O)c3cc4c(cc32)OCO4)c(Cl)c1,inactive: 81%
3,Cc1cccc(C)c1NC(=O)Cn1c(=O)n(Cc2ccco2)c(=O)c2ccc(C(=O)NC3CCCC3)cc21,inactive: 94%
4,CC1Cc2cc(S(=O)(=O)CCC(=O)Nc3ccc(F)c(Cl)c3)ccc2N1C(=O)C1CC1 (stereo not drawn),inactive: 66%
5,CCC(=O)N1c2ccccc2NC2=C(C(=O)CC(C)(C)C2)C1c1ccccn1 (stereo not drawn),inactive: 82%
6,Cc1ccc(S(=O)(=O)c2nc(-c3ccco3)oc2SCC(=O)Nc2ccc(F)cc2)cc1,inactive: 75%
7,O=C(CCn1c(=O)c2sccc2n(Cc2cccc(F)c2)c1=O)NCc1ccc2c(c1)OCO2,inactive: 97%
8,COC(=O)c1cc(-c2ccc(OC)c(OC)c2)c2c(=O)[nH]c(=O)n(C)c2n1,inactive: 94%
9,CCC(=O)N1CCc2cc(S(=O)(=O)NC(CC(C)C)C(=O)NCc3ccc(F)cc3)ccc21 (stereo not drawn),inactive: 80%
10,COc1ccc(C(=O)Nc2noc3ccccc23)cc1,inactive: 69%
11,Cc1cccc(NC(=O)CSc2nccn2-c2cccc(Cl)c2)c1C,inactive: 85%
12,CCOc1cc(C2c3c(-c4ccccc4O)n[nH]c3C(=O)N2Cc2cccnc2)ccc1O (stereo not drawn),inactive: 93%
13,CCC(C(=O)NCc1ccccc1Cl)n1nc(C)c2sc3ccccc3c2c1=O (stereo not drawn),inactive: 103%
14,Cc1ccc(NC(=O)c2sc(-n3nc(C)c(Cc4ccc5c(c4)OCO5)c3C)nc2C)cc1C,inactive: 100%
15,C=CCC(NCc1ccco1)c1ccccc1 (stereo not drawn),inactive: 69%
16,Fc1ccc(Cn2c(-c3cccc(Br)c3)nc3ccccc32)cc1,inactive: 109%
17,CCOc1ccc(CCNC(=O)Cn2nc(CC)n3c(cc4sccc43)c2=O)cc1,inactive: 131%
18,O=C(Nc1c2c(nn1-c1ccc(Cl)cc1)CS(=O)(=O)C2)c1ccccc1F,inactive: 77%
19,O=C(NCCc1nc2ccccc2n1CCCOc1ccc(Cl)cc1)C1CCCCC1,active: 24%
20,Cc1nn2c(C)c(C(=O)NCC(C)c3ccccc3)cnc2c1-c1ccccc1 (stereo not drawn),inactive: 101%
21,COc1ccc(NC(=O)CSc2nc(-c3ccco3)nc3cc(=O)[nH]n23)cc1,inactive: 79%
22,CCOC(=O)CN1C(=O)c2cccnc2Oc2ccccc21,inactive: 87%

row,SMILES,survival
1,Cc1cc(C)cc(NC(=O)CSCc2cc(=O)c3ccc(C)c(C)c3[nH]2)c1,inactive: 80%
2,CNS(=O)(=O)c1cn(CC(=O)N2CCN(c3cc(C)ccc3C)CC2)cc1S(=O)(=O)NC,inactive: 92%
3,O=c1cc(-c2ccccc2)n2c(SCc3cccc([N+](=O)[O-])c3)nnc2[nH]1,inactive: 69%
4,COc1ccccc1-n1nc(-c2ccccc2)c2cnc3cc(C(F)(F)F)ccc3c21,inactive: 81%
5,CCOC(=O)c1ccc(NC(=O)COC(=O)c2cn(CC)c3nc(C)ccc3c2=O)cc1,inactive: 81%
6,Cc1cccc(C)c1OC(=O)CSc1nnc(-c2cccs2)o1,inactive: 75%
7,COc1ccc(-c2oc3ncn4nc(-c5ccccc5C)nc4c3c2-c2ccc(OC)cc2)cc1,inactive: 110%
8,COc1ccc(Cl)cc1NC(=O)CSc1nc(-c2ccco2)cc(C(F)(F)F)n1,active: 31%
9,Cc1ccc(NC2OC(=O)c3ccccc32)cc1 (stereo not drawn),active: 31%
10,CCOc1cc(C(=O)N2CCC(c3ccncc3)CC2)cc(OCC)c1OCC,active: 17%
11,CCOc1ccc(NC(=O)CN2CCN(CC(=O)Nc3ccccc3OCC)CC2)cc1,inactive: 92%
12,NC(=O)C1CCN(C(=O)Cn2c(-c3cccs3)cc3ccccc32)CC1,inactive: 73%
13,CCCCN(c1ccccc1)S(=O)(=O)c1ccc2c(c1)CC(C)N2C(=O)C1CC1 (stereo not drawn),inactive: 50%
14,COc1ccc(CCNC(=O)CCn2c(=O)c3cccn3c3cccnc32)cc1OC,inactive: 82%
15,CCc1ccccc1Nc1nc2ccccc2n2cnnc12,inactive: 129%
16,CCCCNc1c2c3c(cccc3[nH]c1=O)C(=O)c1ccccc1-2,inactive: 73%
17,COc1ccc(C)cc1NS(=O)(=O)c1ccc2[nH]c(=O)c(=O)[nH]c2c1,inactive: 64%
18,CCn1ccc2cc(S(=O)(=O)N3CCCN(C(=O)NCCOC)CC3)ccc21,inactive: 76%
19,CC1CCCCN1S(=O)(=O)c1ccc(NC(=O)CSc2nc3ccccc3o2)cc1 (stereo not drawn),inactive: 57%
20,CCS(=O)(=O)N1CCc2cc(C(=O)Nc3cc(C(F)(F)F)ccc3Cl)ccc21,inactive: 48%
21,CC1CCN(C(=O)C2CCN(Cc3cccc(O)c3)CC2)CC1,inactive: 100%
22,COc1cccc(NC(=O)Cn2c(=O)n(CCCCC(=O)NCCc3ccccc3)c(=O)c3ccccc32)c1,inactive: 79%

row,SMILES,survival
1,CCOC(=O)C1=C(CN2CCN(c3cc(C)ccc3C)CC2)NC(=O)NC1c1ccc(Cl)cc1 (stereo not drawn),inactive: 84%
2,O=C(CSc1nc(C2CC2)nc2ccccc12)N1CCCCC1,inactive: 83%
3,Cc1ccc(C)c(CN2C(=O)c3ccccc3S(=O)(=O)c3ccc(C(=O)N4CCN(c5ccccc5F)CC4)cc32)c1,inactive: 79%
4,O=S(=O)(Nc1ccc(-c2ccc(N3CCCC3)nn2)cc1)c1cccc(C(F)(F)F)c1,inactive: 119%
5,COc1ccc(CNC(=O)CCc2nnc3n(CC(C)C)c(=O)c4ccccc4n23)cc1,inactive: 90%
6,N#CCNS(=O)(=O)c1ccccc1,inactive: 97%
7,O=C(NCc1ccccc1)C1CCN(C(=O)c2cnn(-c3ccccc3)c2-n2cccc2)CC1,inactive: 111%
8,C=Cc1ccc(Cn2c(=O)n(-c3ccc(C)cc3)c(=O)c3c2c2cc(OC)ccc2n3C)cc1,inactive: 79%
9,CCOc1ccc2nc(N3CCCC(C(=O)NCc4ccccc4Cl)C3)sc2c1 (stereo not drawn),inactive: 62%
10,COc1ccc2cc(C(=O)NCc3ccc4c(c3)CCN4C(=O)c3ccc(C)cc3)[nH]c2c1,inactive: 75%
11,CCOc1ccc(NC(=O)Cn2c(=O)n(CC3CCCO3)c(=O)c3ccccc32)cc1 (stereo not drawn),inactive: 82%
12,CCc1ccc(-n2nc(C)c3c(C)cc(=O)n(CC(=O)NCc4ccc(C)cc4)c32)cc1,inactive: 71%
13,CCc1ccc(NC(=O)CSc2nc(C)cc(COC)c2C#N)cc1,inactive: 84%
14,CC(C)CCNc1nc2c(S(=O)(=O)c3ccc(Br)cc3)nnn2c2ccsc12,inactive: 96%
15,O=C(NCc1cccnc1)C(=O)NCC(c1cccnc1)N1CCN(c2ccccc2)CC1 (stereo not drawn),inactive: 53%
16,CCc1cc2c(cc3c(=O)n(CC(=O)N4CCN(c5cc(Cl)ccc5C)CC4)nc(CC)n32)s1,inactive: 83%
17,CCc1nc2ccccc2c(NC(=O)CN(CC)CC)c1C,inactive: 102%
18,CCCCCCc1cc2cc(-c3nnc(-c4ccc(C)cc4)o3)c(=O)oc2cc1O,inactive: 124%
19,Cc1ccc(CNC(=O)C2CCCN(c3nnc(-n4c(C)ccc4C)s3)C2)cc1 (stereo not drawn),inactive: 79%
20,CCc1ccc(NC(=O)Cn2c(=O)oc3cc(S(=O)(=O)NCc4ccccc4)ccc32)cc1,inactive: 102%
21,COc1ccc(NC(=O)CSc2nc(O)c(C/C=C/c3ccccc3)c(=O)[nH]2)cc1,inactive: 94%
22,Cc1ccc(C)c(Cn2c(C)c(CNCc3ccc(F)cc3)c(C(=O)O)c2C)c1,inactive: 86%

# From PubChem BioAssay AID463173 (ICCB-Longwood Screening Facility, Harvard Medical School, 2010)
